# Assay results as given in PubChem BioAssay AID651820 (National Center for Advancing Translational Sciences (NCATS), 2012).
# About 12,000 (3.5%) of roughly 340,000 compounds were called active. This list was built around the results that the source calls inconclusive (neither active nor inactive); the mix of calls is not that of the screen. The call rests on the fitted dose curve; in most records, active means well fitted inhibition curve with a large enough effect; inconclusive means small, poorly fitted or top-dose-only effect, or another doubt; inactive means no such curve, though single readings can be large or run the other way. No potency is given beside an inconclusive call; the fits are too rough.
# Experiment: qHTS Assay for Inhibitors of Hepatitis C Virus (HCV)
# Settings: Huh7.5.1 HCVcc-Cre (HCVcc is cell-culture hepatitis C virus) infection, luciferase reporter, 44 h; activity change, negative = inhibition: at 41.8 µM (top of the series)
# In short: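 Antiviral activity was scored by luciferase reporter output from cells infected with HCVcc-Cre (~0.5 moi) in presence of compound, 44 h infection period, cells seeded 1,000/well 4 h prior.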
# On the % scale 0 is the no-effect control and ±100 the full control effect; potency means the concentration at half of the fitted maximal effect; tags describe the fitted curve by direction and shape.
SMILES,Potency,"activity change, negative = inhibition"
COc1cccc(NC(=O)c2nn(C34CC5CC(CC(C5)C3)C4)cc2[N+](=O)[O-])c1,active: 31.6 µM,
COc1ccccc1Nc1nc(NCc2ccco2)c2ccccc2n1,,inconclusive: -76.2% [inhibitor]
O=C(OCn1ncc(Cl)c(Cl)c1=O)c1ccccc1Cl,active: 3.98 µM,
CC1CCN(c2nc3c(c(=O)n(C)c(=O)n3C)n2Cc2ccccc2)CC1,"inconclusive [inhibitor, partial curve]",
CC(C)(C)OC(=O)C[C@@H]1C/C=C\C[C@H](CC(=O)N[C@H](CO)Cc2ccccc2)C(=O)N[C@@H](Cc2ccccc2)COC1=O,,inactive: -1.99%
CCCn1cnc2c(SCc3ccccc3)nc(N)nc21,"inconclusive [inhibitor, partial curve]",
CCc1nc(N2CCN(C(=O)CCl)CC2)c2c3c(sc2n1)CC(C)CC3 (stereo unspecified),"inconclusive [inhibitor, single point]",
O=c1c(C(c2nnnn2C2CCCCC2)N2CCCCC2)coc2ccc(Cl)cc12 (stereo unspecified),"inconclusive [inhibitor, single point]",
CCOc1ccc(NC(=O)CSc2nc3[nH]ncc3c(=O)n2-c2ccccc2OC)cc1,"inconclusive [inhibitor, full curve]",
O=C(Nc1nccs1)c1ccc2c(c1)OCO2,,inactive: -6.98%
CC(C)CC[n+]1ccn(C2=C([O-])c3ccccc3C(=O)/C2=N\S(=O)(=O)c2ccccc2)c1,active: 10 µM,
CCOc1ccc(CCNC(=O)CN2C(=O)c3cccnc3Oc3ccc(Cl)cc32)cc1,"inconclusive [inhibitor, single point]",
CCCCN1CCC(O)(c2ccccc2)C(C(=O)c2ccccc2)C1 (stereo unspecified),"inconclusive [inhibitor, partial curve, poor fit]",
c1ccc(-c2n[nH]c(-c3ccccc3)c2-c2nc3ccccc3[nH]2)cc1,"inconclusive [inhibitor, single point]",
COc1ccc(S(=O)(=O)N2CCN(c3ccc4nnc(-c5ccccc5)n4n3)CC2)cc1,"inconclusive [inhibitor, single point]",
Cc1ccc(S(=O)(=O)N(CC(=O)N2CCCCCC2)c2ccccc2)cc1,,inactive: 9.61%
COc1ccc(C(CNC(=O)C(CC(C)C)NS(=O)(=O)c2ccc(C)cc2)N2CCOCC2)cc1 (stereo unspecified),,inactive: -15.1%
Cc1cc(C)cc(Nc2nc3ccccc3c(=O)[nH]2)c1,,inactive: 12.1%
O=C(NCCc1c[nH]c2ccccc12)Nc1ccccc1,"inconclusive [inhibitor, single point]",
COc1cccc(NC(C)C(=O)N2CC(C)OC(C)C2)c1 (stereo unspecified),,inactive: 13.4%
CS(=O)(=O)N1CCCC(C(=O)NCCCN2CCC(Cc3ccccc3)CC2)C1 (stereo unspecified),"inconclusive [inhibitor, partial curve]",
COc1ccc(C(=O)Cn2c(NCCCl)nc3ccccc32)cc1,,inactive: -11.1%
O=C(NC1CC1)c1cccc(NC(=O)c2cnn(-c3ccccc3)n2)c1,"inconclusive [inhibitor, single point]",
CCn1cc(C(=O)NCCCOC(C)C)c2cc(OC)c(OC)cc2c1=O,"inconclusive [inhibitor, full curve, poor fit]",
CC(C)CCNC(=O)c1nn(Cc2ccccc2)c(=O)c2ccccc12,,inactive: 3.83%
CN(/N=C/c1cc(Br)cc(Br)c1O)c1cccc(C(F)(F)F)n1,,inactive: -14.8%

SMILES,Potency,"activity change, negative = inhibition"
O=C(Nc1ccccc1-c1nnc(SCc2ccccc2Cl)o1)c1ccccc1,,inactive: -28.8%
O=C(CCl)NCc1cc(-c2ccc(Cl)cc2)no1,active: 11.2 µM,
COc1ccc(C2=NN(C(=O)CCC(=O)O)C(c3ccccc3)C2)cc1 (stereo unspecified),,inactive: 17.9%
CCCCCCCc1nn2c(=O)cc(O)nc2s1,,inactive: 41.8%
Cc1ccc(C)n1-n1c(C)nc2scc(-c3cccs3)c2c1=O,"inconclusive [inhibitor, partial curve, poor fit]",
c1ccc2sc(NN=C3CCCCCC3)nc2c1,"inconclusive [inhibitor, single point]",
CCNc1nc(SCCOc2ccc(C)cc2)nc(N(C)C)n1,active: 11.2 µM,
COc1cc(C(=O)O/N=C(\N)c2cccc([N+](=O)[O-])c2)cc(OC)c1OC,"inconclusive [inhibitor, partial curve]",
O=C(COc1ccccc1[N+](=O)[O-])Nc1cccc(S(=O)(=O)N2CCCC2)c1,"inconclusive [inhibitor, single point]",
Clc1ccc2nc3c(c(-c4ccccc4)c2c1)CNCC3,"inconclusive [inhibitor, single point]",
c1coc(CN(Cc2ccco2)c2ncnc3c2oc2ccccc23)c1,"inconclusive [inhibitor, single point]",
O=C(NC(=S)NCc1ccccc1Cl)c1cccs1,"inconclusive [inhibitor, single point]",
CN(c1ccc(C(=O)N2CCCCC2)cc1)S(=O)(=O)c1ccccc1,"inconclusive [inhibitor, single point]",
COC(=O)C1=C(c2ccc3ccccc3c2)C[C@@H]2CC[C@H]1N2C(=O)NC(C)C,,inactive: -11.8%
Brc1cc2c(cc1/C=N/Nc1nc(N3CCCC3)nc(N3CCOCC3)n1)OCO2,active: 2.82 µM,
CC(=O)Nc1ccc(NC(=O)c2ccc(N(C)S(=O)(=O)c3ccc(C)cc3)cc2)cc1,,inactive: -12.8%
Cc1cc(C(=O)N/N=C/c2ccc(N(C)C)o2)cs1,,inactive: 13.5%
O=S(=O)(c1ccccc1)N1N=C(c2ccc(Br)cc2)CC1c1ccco1 (stereo unspecified),"inconclusive [inhibitor, single point]",
CCOc1ccc(NC(=O)C(=O)NCC2CCCN2CC)cc1 (stereo unspecified),"inconclusive [inhibitor, single point]",
O=C(Nc1cccc(Cl)c1N1CCCC1)c1ccc([N+](=O)[O-])o1,"inconclusive [inhibitor, single point]",
CC(=O)CSc1nsc(SCC(C)=O)c1C#N,"inconclusive [inhibitor, full curve, poor fit]",
CC(=O)N[C@@H](Cc1ccc(O)cc1)CN1C(N)=NC[C@@H]1CC(C)C,,inactive: 6.06%
c1ccc(-c2ccc(-c3nc(-c4ccccn4)no3)cc2)cc1,"inconclusive [inhibitor, single point]",
Clc1ccc(-c2nc3ccc(Cl)cn3c2CN2CCCCC2)cc1,"inconclusive [inhibitor, single point]",
CCCCCCCCCS(=O)(=O)Nc1cc(C)ccn1,"inconclusive [inhibitor, partial curve, poor fit]",
CCNC(=S)N/N=C/c1ccco1,,inactive: -0.0849%

SMILES,Potency,"activity change, negative = inhibition"
Cc1cc(C)nc(SCCS(=O)(=O)Cc2ccccc2)n1,,inactive: -5.49%
COc1cc(C(=O)c2ccccc2C(=O)O)c(OC)c2c1CCCC2,,inactive: 23.2%
NC(CC(=O)O)c1ccc(Br)cc1 (stereo unspecified),,inactive: 14.1%
O=C(N/N=C/C1CC=CCC1)c1ccccc1O (stereo unspecified),,inactive: -2.66%
O=C1NC[C@@H](Cc2cccc3ccccc23)N(CC2(c3ccccc3)CC2)C1=O,"inconclusive [inhibitor, single point]",
O=C(NC(=S)NCCSc1ccccc1)c1cccnc1,,inactive: -11%
Cc1ccccc1-n1c(SCC(=O)NCc2cccs2)nc2ccccc2c1=O,"inconclusive [inhibitor, single point]",
O=C(CSc1nc2ccccc2n1-c1ccccc1)Nc1ncc(Cl)cc1Cl,"inconclusive [inhibitor, full curve, poor fit]",
CCOC(=O)C1=C(C)N(C)C(=O)NC1c1ccc(C)s1 (stereo unspecified),"inconclusive [inhibitor, partial curve]",
Cc1ccc(-n2c(Cl)c(Cl)nc(Cl)c2=O)cc1,active: 7.08 µM,
Cc1c(C(=O)N2CCN(c3ccccn3)CC2)oc2ccccc12,,inactive: -20.3%
CC[N+]1(C)[C@@H]2CC[C@H]1CC(OC(=O)[C@H]1CCC(C(=O)OC3C[C@H]4CC[C@@H](C3)[N+]4(C)CC)(c3ccccc3)c3ccccc31)C2 (stereo partly specified),,inactive: -9.08%
COc1ccc(S(=O)(=O)NCC2CCCN(C(=O)C3CCCC3)C2)cc1 (stereo unspecified),,inactive: -13.7%
COc1ccccc1NC(=O)Nc1nc(CC(=O)N2CCN(c3ccc(F)cc3)CC2)cs1,active: 11.2 µM,
CSc1nnc(N2C(=O)C(O)=C(C(=O)c3ccc(C)o3)C2c2ccc(C)cc2)s1 (stereo unspecified),"inconclusive [inhibitor, single point]",
CCOC(=O)c1sc(NC(=O)c2cccc(S(=O)(=O)N3CCN(C)CC3)c2)cc1C,"inconclusive [inhibitor, full curve, poor fit]",
CS(=O)(=O)c1ccc2nc(NC(=O)c3ccc(Cn4cc(Br)cn4)o3)sc2c1,,inactive: 1.82%
COc1cccc(C2c3c(oc4ccccc4c3=O)C(=O)N2CCCN2CCOCC2)c1OC (stereo unspecified),,inactive: 8.22%
CCOC(=O)c1c(CN2CCN(C)CC2)n(-c2ccccc2)c2cc(Br)c(O)cc12,active: 14.1 µM,
COc1ccc(OCc2cc(C(=O)NC(C)Cc3ccccn3)no2)c(Cl)c1 (stereo unspecified),"inconclusive [inhibitor, single point]",
CC(=O)c1ccccc1NC(=O)CCN1C(=O)C2CCCCC2C1=O (stereo unspecified),,inactive: 10.9%
COc1ccc(C2SCCN2C(=S)Nc2ccc(F)cc2)cc1 (stereo unspecified),,inactive: -12.9%
COc1c(Cl)cnn(-c2ccc(C)cc2)c1=O,"inconclusive [inhibitor, partial curve]",
COc1ccc2[nH]c3c(c2c1)CCN1C(=O)C(CC(=O)NCCN2CCOCC2)C[C@H](C(=O)N(C(C)C)C(C)C)[C@@]31C (stereo partly specified),,inconclusive: -30.8% [inhibitor]
